Residue numbers refer to the chain shown, from its start.
T1: Hs_CD123_6His-Avi (CD123 ECD-His-Avi fusion protein) (human, UniProt P26951 19-303)
T1 construct: The signal peptide is marked only by bold type, so its limits cannot be read here and were not guessed; also called His-Avi tagged peptide encompassing the ECD of human CD123
T1 sequence: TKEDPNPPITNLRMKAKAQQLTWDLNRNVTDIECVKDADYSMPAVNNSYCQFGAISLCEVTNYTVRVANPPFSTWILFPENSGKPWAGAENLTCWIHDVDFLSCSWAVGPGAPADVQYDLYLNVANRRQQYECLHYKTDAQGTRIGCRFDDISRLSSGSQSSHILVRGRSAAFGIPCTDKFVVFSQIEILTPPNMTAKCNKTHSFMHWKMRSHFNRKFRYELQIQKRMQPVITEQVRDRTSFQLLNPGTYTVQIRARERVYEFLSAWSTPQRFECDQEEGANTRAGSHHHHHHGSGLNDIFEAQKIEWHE

B1: HuV1-10C4, recombinant humanized 10C4, human IgG4 framework (antibody)
heavy: QVQLQESGPGLVKPSETLSLTCTVSGFSLTTYDINWIRQPPGKGLEWIGVIWTGGGTNYNSAFMSRVTISVDTSKNQFSLKLSSVTAADTAVYYCARADTYHYALDFWGQGTLVTVSSASTKGPSVFPLAPCSRSTSESTAALGCLVKDYFPEPVTVSWNSGALTSGVHTFPAVLQSSGLYSLSSVVTVPSSSLGTKTYTCNVDHKPSNTKVDKRV[human IgG4 Fc with S228P (EU numbers) not printed]
light: DIVMTQSPDSLAVSLGERATINCKSSQSLLSSGTRKNYLAWYQQKPGQPPKLLIYWASTRESGVPDRFSGSGSGTDFTLTISSLQAEDVAVYYCKQSYILFTFGQGTKLEIKRTVAAPSVFIFPPSDEQLKSGTASVVCLLNNFYPREAKVQWKVDNALQSGNSQESVTEQDSKDSTYSLSSTLTLSKADYEKHKVYACEVTHQGLSSPVTKSFNRGEC
notes: also called CD123-HuV1-10C4; HuV1-10C4_IgG4
B2: HuV2-10C4, recombinant humanized 10C4, human IgG4 framework (antibody)
heavy: B1 heavy with I34W, N35S, V50Y, S61P, A62S, F63L, M64K, A96V, A98G
light: B1 light
notes: Light chain as for the HuV2 IgG1 form (see there); Signal peptides left out as for HuV1; also called CD123-HuV2-10C4; HuV2-10C4_IgG4
B3: HuV1-10C4, recombinant humanized 10C4, human IgG1 framework (antibody)
heavy: QVQLQESGPGLVKPSETLSLTCTVSGFSLTTYDINWIRQPPGKGLEWIGVIWTGGGTNYNSAFMSRVTISVDTSKNQFSLKLSSVTAADTAVYYCARADTYHYALDFWGQGTLVTVSS[human IgG1 constant region not printed]
light: B1 light
notes: also called CD123-HuV1-10C4; HuV1-10C4_IgG1
B4: HuV2-10C4, recombinant humanized 10C4, human IgG1 framework (antibody)
heavy: B3 heavy with I34W, N35S, V50Y, S61P, A62S, F63L, M64K, A96V, A98G
light: B1 light
notes: No full light chain is headed HuV2; Signal peptides left out as for HuV1; also called CD123-HuV2-10C4; HuV2-10C4_IgG1

biological target: T1, Hs_CD123_6His-Avi (CD123 ECD-His-Avi …); test: competition ELISA against biotinylated 10C4 on coated CD123 ECD-His-Avi; percent relative to the 10C4 row of the drawn table
From the text: (§1) FIGS. 15A-15B. Enzyme-linked immunosorbent assay (ELISA) with the original mouse 10C4 antibody and peptide encompassing the entire extracellular domain (ECD) of CD123 was used to test competitive binding of 10C4 compared to recombinant (FIG. 15A) human IgG1 versions and (FIG. 15B) human IgG4 versions of chimeric 10C4 and humanized 10C4 monoclonal antibodies. Plates were coated with CD123 ECD-His-Avi fusion protein and bound to biotinylated 10C4 antibody in the presence or absence of increasing amounts of competing unlabeled antibodies, as detected by HRP-Streptavidin.

Binder | Immunoreactivity
B1 | 135%
B2 | 212%

biological target: T1, Hs_CD123_6His-Avi (CD123 ECD-His-Avi …); test: competition ELISA: plate coated with CD123 ECD-His-Avi, biotinylated 10C4 as competitor, increasing unlabeled antibody, HRP-streptavidin; unit not given, x axis is log(concentration)
From the text: as §1

Binder | Calculated concentration at 1/2 OD
B1 | 1.41
B2 | 2.21

biological target: T1, Hs_CD123_6His-Avi (CD123 ECD-His-Avi …); test: SPR (Biacore T-100), univalent affinity; antibody captured on the CM4 chip, human CD123 ECD as analyte
Description: FIGS. 13A-13B. Surface plasmon resonance (Biacore T-100) analyses were performed to rigorously/precisely determine univalent binding affinities of recombinant chimeric and humanized versions of the anti-human CD123 monoclonal antibody 10C4, using (FIG. 13A) human IgG1 and (FIG. 13B) human IgG4 frameworks. For these experiments, a peptide encoding the complete extracellular portion of human CD123 was used, and the antibodies were captured on the biosensor chip (CM4) via a Fc gamma-specific goat anti-human IgG and amine coupling.

Binder | Kd | koff | kon
B3 | 6.09 nM | 0.000556 s⁻¹ | 91200 M⁻¹ s⁻¹
B4 | 242 nM | 0.0163 s⁻¹ | 67500 M⁻¹ s⁻¹
B1 | 6.53 nM | 0.000544 s⁻¹ | 83200 M⁻¹ s⁻¹
B2 | 225 nM | 0.0204 s⁻¹ | 90600 M⁻¹ s⁻¹

Reference: patent US20230295316A1 (FRED HUTCHINSON CANCER CENTER, published 2023)
